Measured values: PubChem BioAssay AID1240 (Sanford-Burnham Center for Chemical Genomics, 2008)
The whole screen tested about 50,000 compounds, of which about 800 (1.6%) showed an effect of 50% or more. This is one part of the list.

Target: Bcl-2-like protein 10 (Homo sapiens) (UniProt Q9HD36)
Test: TR3 peptide-Bcl-B binding displacers, biochemical primary FP assay, phenotype converters (AID 1240);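 further: 0% = Bcl-B with tracer peptide and DMSO and 100% = tracer peptide lacking Bcl-B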
Conditions: GST-Bcl-B / FITC-TR3 peptide fluorescence polarization; stronger effect = higher value; compound at 3.75 mg/L

UniProt Q9HD36, sequence (Q9HD36 whole entry, looked up): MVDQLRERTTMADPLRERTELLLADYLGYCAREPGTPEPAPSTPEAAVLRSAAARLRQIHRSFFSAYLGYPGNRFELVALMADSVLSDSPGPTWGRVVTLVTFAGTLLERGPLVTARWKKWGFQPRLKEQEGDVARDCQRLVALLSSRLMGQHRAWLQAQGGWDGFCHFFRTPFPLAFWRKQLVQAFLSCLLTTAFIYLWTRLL

How did the displacement turn out when `CN1/C(=C\C(=O)Nc2ccc(Cl)cc2)c2ccccc2CC1(C)C` was run?
Its displacement is 20.3%.

For `COC(=O)c1ccc(/C=C2/SC(=S)N(C)C2=O)cc1`, which displacement is on record?
Its displacement is 1.3%.

With `O=C1c2ccc(Oc3ccc([N+](=O)[O-])cc3)cc2C(=O)N1c1ccc(Cl)cn1` as the compound, how does the displacement read?
Its displacement is -5.1%.

`Cc1ccc(/C=C(\C#N)c2nn(-c3ccccc3)c(N)c2C#N)cc1` was tested. Which displacement did it give?
Its displacement is 2.5%.

With `NC(=O)C(=O)Nc1cccc2ccccc12` as the compound, how does the displacement read?
Its displacement is 12.8%.

With `Cc1ccc(N2C(=O)c3ccccc3NC2c2cccc(F)c2)cc1` (stereo not drawn) as the compound, how does the displacement read?
Its displacement is 16.4%.

Which displacement does the source give for `O=C(Nc1ccc(Cl)cc1)Nc1ccccc1C(=O)O` here?
Its displacement is -7.5%.

`COc1ccc(/C=C\C(=O)c2ccc([N+](=O)[O-])cc2)cc1OC` was tested. Which displacement did it give?
The displacement was 12.9%.

With `COc1ccc(C(=O)c2c(N)c(C#N)c(C)n2-c2ccccc2)cc1` as the compound, how does the displacement read?
Its displacement is 9.3%.

How did the displacement turn out when `CCOc1ccc(NCCC(=O)c2cccs2)cc1` was run?
Its displacement is -4.5%.

For `Cc1cc(C)c(C=C2C(=O)c3ccccc3C2=O)cc1C`, which displacement is on record?
The displacement was -1.6%.

How did the displacement turn out when `Cc1ccc(NC2=C(Cl)C(=O)N(Cc3ccccc3)C2=O)cc1C` was run?
Its displacement is 19.5%.

Which displacement does the source give for `CCc1ccccc1NC(=O)C(F)(Cl)C(F)(F)F` (stereo not drawn) here?
Its displacement is -3.1%.

How did the displacement turn out when `CCOC(=O)c1c(NC(=O)C2CC2c2ccccc2)sc2c1CCC2` (stereo not drawn) was run?
The displacement was -10.7%.

For `COC(=O)C1(C(=O)OC)C(c2ccccc2)C1(C(=O)OC)C(=O)OC`, which displacement is on record?
Its displacement is -6.4%.

Which displacement does the source give for `Cc1nnc(SCC(=O)Nc2nc3ccccc3s2)s1` here?
The displacement was -6.5%.

`C=CCOc1cccc(/C=N/NC(=O)C(=O)Nc2ccc(OC)cc2OC)c1` was tested. Which displacement did it give?
Its displacement is 9.2%.

With `CCc1ccccc1NC(=O)CN(c1ccc(C(C)C)cc1)S(=O)(=O)c1ccccc1` as the compound, how does the displacement read?
Its displacement is 1.4%.

For `O=C(NNC(=S)Nc1ccccc1)c1cccnc1`, which displacement is on record?
The displacement was -28%.

For `Nc1nnnn1Cc1nc2ccccc2[nH]1`, which displacement is on record?
The displacement was -6.5%.

For `COc1ccc(C(=O)N/C(=C\c2cccc([N+](=O)[O-])c2)C(=O)NCC(C)C)cc1`, which displacement is on record?
The displacement was 5.9%.

For `COc1ccc(Br)cc1/C=N/Nc1nc(N2CCOCC2)nc(N2CCOCC2)n1`, which displacement is on record?
The displacement was 7.1%.

With `O=[N+]([O-])c1ccc(C=Nc2ccc(Br)cc2)o1` as the compound, how does the displacement read?
Its displacement is -7.9%.

`COc1cccc(N(CC(=O)N2CCOCC2)S(=O)(=O)c2ccccc2)c1` was tested. Which displacement did it give?
The displacement was 9.8%.

Which displacement does the source give for `COC(=O)CN(c1ccc(OC)c(Cl)c1)S(C)(=O)=O` here?
Its displacement is 9.3%.

Which displacement does the source give for `Cc1cc(C)n2nc(-c3ccc(F)cc3)cc2n1` here?
Its displacement is 6.7%.

Which displacement does the source give for `CC1=C/C(=N/S(=O)(=O)c2ccc(C)cc2)C=C(Cl)C1=O` here?
The displacement was 15.4%.

For `O=C(CP(=O)(c1ccccc1)c1ccccc1)N1CCCCC1`, which displacement is on record?
Its displacement is 6.9%.

How did the displacement turn out when `CC(=O)Oc1ccc2c(C(F)(F)F)cc(=O)oc2c1` was run?
The displacement was 22.7%.

Which displacement does the source give for `Cc1ccc(/C=C(/C#N)C(=O)Nc2cccc(Br)c2)o1` here?
The displacement was -37.3%.

For `NC(=O)c1ccc(C(=O)N(C2CCCCC2)C2CCCCC2)cc1`, which displacement is on record?
The displacement was -13%.

For `CCOC(=O)c1cccc(NC(=O)c2ccc(OC)cc2)c1`, which displacement is on record?
The displacement was 11.1%.

With `COc1ccc(C(=O)Nc2ccc(Cl)cc2C)cc1` as the compound, how does the displacement read?
The displacement was -7.7%.

For `c1ccc(Nc2nc(-c3cccs3)cs2)nc1`, which displacement is on record?
Its displacement is -16.5%.

`O=C(N/N=C/c1c[nH]c2ccccc12)c1ccccc1[N+](=O)[O-]` was tested. Which displacement did it give?
Its displacement is -9%.

`COc1ccc(N=Cc2c(O)n(-c3ccccc3)c(=O)[nH]c2=O)cc1Cl` was tested. Which displacement did it give?
Its displacement is 113%.

For `COc1cc(/C=N/O)ccc1OCc1ccc(Cl)cc1`, which displacement is on record?
Its displacement is -4.6%.

`Cc1nc2ccccn2c1C(=O)NC1CCCCC1` was tested. Which displacement did it give?
Its displacement is -7.6%.

With `Cc1ccc(C(=O)NCCOc2ccc(Cl)cc2)cc1` as the compound, how does the displacement read?
Its displacement is -0.2%.

Which displacement does the source give for `CC(=O)Nc1ccccc1NC(=O)c1ccccc1[N+](=O)[O-]` here?
The displacement was -6.6%.

How did the displacement turn out when `O=c1c2c(nc3cc(-c4cccc(F)c4)[nH]n13)CCS2` was run?
The displacement was 9.2%.

For `Cc1[nH]n(-c2ccccc2)c(=S)c1C=Nc1ccccc1O`, which displacement is on record?
Its displacement is 5.5%.

Which displacement does the source give for `O=C(/C=C/c1ccco1)N(Cc1ccccc1)Cc1ccccc1` here?
The displacement was -12.2%.

`COc1ccc(OC(C)C(=O)Nc2ccc(N(C)C)cc2)cc1` (stereo not drawn) was tested. Which displacement did it give?
Its displacement is 9.1%.

Which displacement does the source give for `COC(=O)C1=C(C)N(C)C(C)=C(C(=O)OC)C1c1ccccc1OCc1ccccc1` here?
The displacement was -0.9%.

How did the displacement turn out when `COc1ccc(/C=C(\NC(=O)c2ccccc2)C(=O)Nc2ccc(C)cc2)cc1OC` was run?
Its displacement is 0%.

Which displacement does the source give for `Cc1ccc(C(=O)N2CCN(c3ccccc3)CC2)cc1C` here?
The displacement was 12.7%.

How did the displacement turn out when `O=C(Nc1ccc2c(c1)OCO2)c1cnn2c(C(F)(F)F)cc(-c3cccs3)nc12` was run?
Its displacement is 11.2%.

For `Cc1cc(C(=O)Nc2cccc(/C=C/C(=O)O)c2)c(C)o1`, which displacement is on record?
The displacement was -2.5%.

For `COC(=O)CN(C#N)c1nc(SC)nc(N(C)C)n1`, which displacement is on record?
Its displacement is -10.3%.

For `COc1ccc(/C=C2\SC(=S)N(CCCC(=O)Nc3ncc(Cc4cccc([N+](=O)[O-])c4)s3)C2=O)cc1OC`, which displacement is on record?
The displacement was 59%.

How did the displacement turn out when `CSc1ccc(C=NN2CCN(Cc3ccccc3Cl)CC2)cc1` was run?
The displacement was -8%.

Which displacement does the source give for `CC(C)(C)c1ccc(C(=O)Nc2ccc(OC(F)(F)F)cc2)cc1` here?
The displacement was -5.9%.

For `N#CSCCCCCCOc1cccc(Cl)c1`, which displacement is on record?
Its displacement is -12%.

`CCCOC(=O)c1ccc(NC(=O)CCC(=O)OC)cc1` was tested. Which displacement did it give?
The displacement was 5.5%.

For `Cc1cc(=O)oc2cc(OCc3ccc(Cl)cc3Cl)ccc12`, which displacement is on record?
The displacement was 5.7%.

For `O=C1OC(COc2ccccc2)CN1c1ccc(Cl)c(Cl)c1` (stereo not drawn), which displacement is on record?
The displacement was 0.5%.

Which displacement does the source give for `O=C1NC(=O)N(c2ccc(Cl)cc2)C(=O)/C1=C/c1ccc(O)c(Cl)c1` here?
The displacement was 2.8%.

For `COc1cc(-c2nc3sc4c(c3c(=O)[nH]2)CCCC4)ccc1C`, which displacement is on record?
Its displacement is -20.6%.

`O=[N+]([O-])c1cc(NS(=O)(=O)Cc2ccccc2)ccc1F` was tested. Which displacement did it give?
The displacement was 11%.

How did the displacement turn out when `COc1ccc(-c2[nH]ncc2C=O)cc1` was run?
Its displacement is -9.7%.

How did the displacement turn out when `O=C(N/N=C/c1ccccc1OCc1ccccc1)c1ccccc1O` was run?
Its displacement is 6%.

For `O=C1NC(=S)N(c2ccc(Br)cc2)C(=O)/C1=C/c1ccc(O)c(Cl)c1`, which displacement is on record?
The displacement was 10.7%.

For `CC(=O)Nc1ccc(N2C(=O)CSC23C(=O)Nc2ccccc23)cc1` (stereo not drawn), which displacement is on record?
Its displacement is 8.3%.

`CC(=O)Nc1ccc(-c2nc(-c3ccccc3)c3cc(NC(C)=O)ccc3n2)cc1` was tested. Which displacement did it give?
Its displacement is 6.7%.

Which displacement does the source give for `Cc1ccc(S(=O)(=O)Nc2ccc(S(=O)(=O)NC(=O)C3CCCCC3)cc2)cc1` here?
Its displacement is 12.7%.

How did the displacement turn out when `COc1ccc(Cl)cc1C(=O)Nc1nc2ccc(S(C)(=O)=O)cc2s1` was run?
Its displacement is 3.1%.

For `COc1ccc(C(=O)NC2CC2)cc1OC`, which displacement is on record?
The displacement was 8.4%.

`CC(C)c1ccc(OC(=O)CCN2C(=O)c3ccccc3C2=O)cc1` was tested. Which displacement did it give?
The displacement was 4.4%.

`COc1cc(-c2ccccc2)nc(N)n1` was tested. Which displacement did it give?
The displacement was -5.4%.

Which displacement does the source give for `COc1ccc(C(=O)N/C(=C\c2ccc(Cl)cc2)C(=O)NCCN2CCOCC2)cc1` here?
Its displacement is 8%.

`COc1ccc(CNS(=O)(=O)c2cccc([N+](=O)[O-])c2)cc1` was tested. Which displacement did it give?
The displacement was -1.6%.

With `COc1ccc(C/C(N)=N/OC(=O)c2ccccc2Cl)cc1` as the compound, how does the displacement read?
The displacement was -0.1%.
